# This is one part of the list.
# Tested on: PfAP2-HC AP2 domain (GST-tagged)
# Assay: gcPBM binding intensity (ln(normalized median fluorescence intensity)); higher = stronger DNA binding
# Method in brief: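 An Agilent 4 × 180k array carrying primer-extended double-stranded 36-bp intergenic genomic probes and negative controls received GST-tagged P. falciparum DNA-binding domains expressed in E. coli, about 25 μg on average, for 1 h. The binding buffer contained 1× PBS, 1% milk, 0.2 mg/ml BSA, 0.5% salmon testes DNA and 0.03% Triton X-100. Binding intensity is the top Masliner-normalised natural-log median intensity across replicate spots of either probe orientation, read after Alexa488 anti-GST antibody staining and a 488 nm scan.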
row,Sequence,gcPBM binding intensity (ln)
1,TTAAAAATAAATTCATGTACATAATATATATATATA [XGTACX_site7908],9.49
2,CATATGTATATGACTACACACAAGGGTGTACCTATA [CACACA_site6670],9.93
3,TATATACAACGTTAAGCACACACAAAAAAAATTTAA [CACACA_site9013],10
4,TTGCATTTATTATACACACACAAAAAAATATTTATA [CACACA_site6252],10
5,ACGTATTTTTAAATATATGAATTATGTAACTTGTGA [CACACA_negctrl_site1446],9.48
6,TATACTATTTAAATGTGTACTAAAAGAATATATTAT [XGTACX_site5238],9.55
7,GAATATGTGATATTTTGTACATAAAAATAATATATA [XGTACX_site6398],9.64
8,CTATATGTTAAATTCTCACACATTATTACAATTTAA [CACACA_site5979],9.67
9,ATTATAACTAAATAAATGATATATAATATTTTATTT [XGTACX_negctrl_site234],9.43
10,TATATATAGAAACACACACACACACCCAAGCGTAGC [CACACA_site63],10.6
11,ATAATGTATTTATATATATATATATATTTTAATAAA [CACACA_negctrl_site460],9.52
12,AATTATAAAAAAAAAAAAAAAAAAAAAAACTAAATG [CACACA_negctrl_site1379],9.36
13,TAATAAATCAATAAATGTACATATATGTATAATTTC [XGTACX_site980],9.76
14,TTTAAAAATATATTCACACAGAAATAGTAAAAGTTA [CACACA_site4587],9.63
15,TAAATATATTTATAAGCACACACTAATAAACCAACA [CACACA_site8022],10.1
16,TTATGCAATTTGTATTGTACATTCATGATATTAATA [XGTACX_site5070],9.53
17,ATCTATATCTATAATACACACATAAATGGATATATA [CACACA_site6284],9.69
18,AATGTGTACGCACGCACACACAAAAAAATATATATA [CACACA_site2913],10.7
19,CAAGCCCTTCTGCTTACACACAGTAATTATTGTGCA [CACACA_site7399],9.76
20,AATACCCATATCTTCACACATACATAATAAATTATA [CACACA_site5367],9.75
21,TTTGAATATTCATATGCACACAAATTAATATACATA [CACACA_site8040],9.63
22,TTTATTTATGTGTGGGTGCATATACGTATGATGTAT,9.92
23,TTTATTTTATTTTCATGTACAAAAGGGGAATAATAA [XGTACX_site2704],9.37

row,Sequence,gcPBM binding intensity (ln)
1,GATTTATACAAATATGTACACACTAAATATATATTA [CACACA_site455],9.83
2,TATTTATCTTTACGCACACACTTGCATGTACAAAAG [CACACA_site4753],10
3,ATATGTATGTATTTATTATTGTGCATTGTATTTATA [CACACA_negctrl_site664],9.84
4,ATATATTTATATATTTGTACATATAATATCTTCTTT [XGTACX_site8504],9.69
5,GTCGTATAATTTTCAGTGCAATATTTGAATAAATGG [GTGCAC_site9404],9.62
6,ATTTATTAATTACCATGTATAAAAAATTATATAATA [CACACA_negctrl_site581],9.39
7,AGCAACTCAATATATATAAGAATTGTAATATAATAT [GTGCAC_negctrl_site429],9.66
8,ATACAATACAAAAACACACACAAAAAAAGAAAAGGA [CACACA_site2156],10.4
9,TTAAAATAAAGAAAATGTACATAAATTAAAATAAAG [XGTACX_site2281],9.81
10,TTTTTTTTTTTTTTTATAGTACATTACCAAAAAAAA [CACACA_negctrl_site1197],8.94
11,ATTTATTGACTATTTACACACATATTTATTATAATA [CACACA_site1624],9.93
12,ACACATAATATGTGTAGTACTTTTTCTTTAACATTA [XGTACX_site1436],9.74
13,AACAGTAACATTGAATGTACTTAATTTTAAGAAAAT [XGTACX_site2971],9.67
14,TATAAATATAAATATACACACATATATTTATTTATA [CACACA_site6890],9.66
15,TATTTTGTTCTTTCCACACACAAATACAGATATTGT [CACACA_site6097],10.1
16,TCTTATCCATATATTACACACTATAAATAGAAATTA [CACACA_site6274],9.45
17,ATTTGTATATATTAATGTACACACATGCGTATGTTC [XGTACX_site7579],10
18,TGGGTAAACAGACACACACACATATAGATTTATATA [CACACA_site7026],10.9
19,AAATTATATGAACATTGTACTTTATATATGTAAGAA [XGTACX_site1611],9.64
20,CTTCCAATAAAAAATGCACACATTGAAAATATTGAA [CACACA_site2688],9.66
21,ACACACATATATACATGTACATATATATATATATAT [XGTACX_site451],10.1
22,TAATAAAATATGTACACACATACACCCATATATATA [CACACA_site1220],10
23,TGTAGTCTGGAGAAAAGTACATAGTATCTGGTAACC [XGTACX_site2025],9.6

row,Sequence,gcPBM binding intensity (ln)
1,AACAGACAGAAACACACACACATATATATATATATA [CACACA_site3394],10.8
2,ATTTTCCAAAATAATTGTACAGGAAAGAAATAATTA [XGTACX_site7424],9.41
3,ATACATATTTTACATTCACACAACAAATTTATATTT [CACACA_site4700],9.87
4,AGGAACAAAATATACTGTACTTTATTATTTTCAAAA [XGTACX_site4421],9.34
5,ATATATTTTAATTGATGTACTTTTTTATGTTAATGA [XGTACX_site4316],9.5
6,TATACATATGAAAATACACACATACATACATATATA [CACACA_site8484],10
7,ATTATACATATATAAGTGCAATAATGTTTTTTCCTT,9.58
8,AAGGTATATATAACTACACACTTATATATAATCTAA [CACACA_site92],9.75
9,ATTTATTTATTTATATGTACATATTTAAAGAGTTCA [XGTACX_site7631],9.57
10,ATATATATATATATATGTACTAAGAATTCTTTAAAA [XGTACX_site8476],9.57
11,TTACTTTTAACAAATGTGCGCAGTTATCACACAGAC,9.67
12,TATATTTTGTTCTGTTGTACTAAAAAAATCTTTATA [XGTACX_site8372],9.5
13,ACAAAACAAAAAAACTCACACATATACGGCATGTCA [CACACA_site5608],10.3
14,TAAAAAAATATATATACATGCATAGAAAAAAAAAAA [TGCATGCA_site552],9.73
15,TAATAATAAATTGGTTGTACAACCTTATACAGAATA [XGTACX_site2592],9.57
16,ACACAAAAAATAAAAATATATATATATTATATATAT [CACACA_negctrl_site1489],9.75
17,TTTTAAACAAAAATTTGTACACAATAATTAAATATA [XGTACX_site6755],9.43
18,ATTTAATTTTTTTTTTTTTTTTTTCAATCCCCTTTT [CACACA_negctrl_site1013],9.2
19,CATTTTAAAGAAAATACACACAAAAATAAATATATA [CACACA_site1395],9.83
20,TTTTTTTATTAAAAATGTACAAAAATGAAAAAATAA [XGTACX_site8279],9.49
21,CATATAATTTTATGGGTGCATTTTTTTGTAAGACCA,9.49
22,TTAAAAAAAAAAAGGTGTACTATAATTTAATATCAC [XGTACX_site6316],9.54
23,TATATTTACGTATGTCGAACGTTATTTTGAACAACC [CACACA_negctrl_site1261],9.52

row,Sequence,gcPBM binding intensity (ln)
1,AATATATAATTTTATAGTACATAATAAAAGAACAGG [XGTACX_site724],9.88
2,TTATATTATGCTTGAATGCACTTTGAAGCACAATCT [GTGCAC_site9789],9.45
3,TTTAATTTTTTTTAAACACACACATTACATTCAAAA [CACACA_site7926],9.82
4,TATTCAACATAATATGCACACAAAAATTATGGAACG [CACACA_site8660],9.92
5,ATCACATAAAATATGAATATATATTTTATATATATA [CACACA_negctrl_site340],9.53
6,CGTTTATATAGTGATGCATGCATTGTTAACATGGTT [TGCATGCA_site418],9.6
7,TTTATACACAAAAAATGTACATATATATAATGAATT [XGTACX_site1195],9.64
8,TGTATGTCTTTATTTTGTACACAATATAAAAAATTA [XGTACX_site5441],9.6
9,CGCACAAAAATATACACACACACATATATATTTATT [CACACA_site3645],10.4
10,AAGGATGATACAACTTGTACATATTTGCTTAATATA [XGTACX_site764],9.64
11,ATATAAATATATTGCACACACAATTATTATTATTAT [CACACA_site7147],10
12,CATGTGCATATTAAATGTACATATATACATATATAC [XGTACX_site857],9.6
13,ATATAGGTATTTAATACACACAAAACTTTCATTCCA [CACACA_site7627],9.91
14,AAAGCTAATATTATATGTACTTATATATTTATATAT [XGTACX_site4474],9.76
15,ATATAAATCTACACCGCACACAAAAACAACAAATAT [CACACA_site2506],10.5
16,AAATAAATGAAACACACACACACAAAAAAAAAAAAC [CACACA_site2625],10.9
17,TATAATGTTAAATAATGTACATATTTTTTTTTTTTT [XGTACX_site4721],9.4
18,AACAAATTTTTTTTTCCTTTTTTTTTTTTACTTCAT [CACACA_negctrl_site1214],9.53
19,ATAAACAAAGTTAAATGTACAAAGGGGTAAAAAAAA [XGTACX_site83],9.86
20,ACACAATTGAAATAGTGTACAAAATGTTGTTACATA [XGTACX_site8671],9.85

# From the supplement of paper PMC11417369
